Sequences and labels used below:
B1: A11: random chimeric ZFP from the library (protein)
chain: MVYPYDVPDYAELPPKKKRKVGIRIPGEKPFQCKTCQRKFSRSDHLKTHTRTHTGEKPYVCSKCGKAFTQSSNLTVHQKIHTGEKPYECHDCGKSFRQSTHLTRHRRIHTGEKPYKCHQCGKAFIQSFNLRRHERTHTGEKAAAKFVSVTFEDVAVLFTRDEWKKLDLSQRSLYREVMLENYSNLASMAGFLFTKPKVISLLQQGEDPW
modifications: plasmid sequence
notes: random chimeric ZFP from the library
B2: D01: random chimeric ZFP from the library (protein)
chain: MVYPYDVPDYAELPPKKKRKVGIRIPGEKPYECDHCGKSFSQSSHLNVHKRTHTGEKPYMCSECGRGFSQKSNLIIHQRTHTGEKPYECHDCGKSFRQSTHLTRHRRIHTGEKPYKCKQCGKAFGCPSNLRRHGRTHTGEKAAAKFVSVTFEDVAVLFTRDEWKKLDLSQRSLYREVMLENYSNLASMAGFLFTKPKVISLLQQGEDPW
modifications: plasmid sequence
notes: as for B1
B3: F02: random chimeric ZFP from the library (protein)
chain: MVYPYDVPDYAELPPKKKRKVGIRIPGEKPYSCGICGKSFSDSSAKRRHCILHTGEKPYVCDVEGCTWKFARSDKLNRHKKRHTGEKPYVCDVEGCTWKFARSDELNRHKKRHTGEKPYECHDCGKSFRQSTHLTRHRRIHTGEKAAAKFVSVTFEDVAVLFTRDEWKKLDLSQRSLYREVMLENYSNLASMAGFLFTKPKVISLLQQGEDPW
modifications: plasmid sequence
notes: as for B1
B4: D10: random chimeric ZFP from the library (protein)
chain: MVYPYDVPDYAELPPKKKRKVGIRIPGEKPYECDHCGKSFSQSSHLNVHKRTHTGEKPYRCEECGKAFRWPSNLTRHKRIHTGEKPYRCEECGKAFRWPSNLTRHKRIHTGEKPFACPECPKRFMRSDNLTQHIKTHTGEKAAAKFVSVTFEDVAVLFTRDEWKKLDLSQRSLYREVMLENYSNLASMAGFLFTKPKVISLLQQGEDPW
modifications: plasmid sequence
notes: as for B1

For this experiment, the system named is SV40-SEAP reporter (pSEAP2-control). Description: SEAP assay, SV40-SEAP reporter in 293 cells. The experiment is classed as cell-based, human. To be noted: SEAP reporter activity, three days after transfection. As for the experimental part: Human embryonic kidney 293 cells were cultured with 100 μl of DMEM with 10% of FBS in a humidified atmosphere containing 95% air and 5% CO2 and seeded in wells of a 96 well plates 1 day ahead of transfection. The plasmids were isolated from individual colonies of each library separately and transfected into 293 cells LIPOFECTAMINE PLUS™ (Invitrogen) as recommended by the manufacturer. For MTT assay, 50 ng of plasmids containing zinc finger protein gene fused to the functional domains were transfected into cells cultured at 5·10^3 cells/well. For the SEAP assay, 10 ng of pSEAP2-control (Clontech) plasmid was co-transfected with 50 ng of plasmids containing zinc finger protein gene fused to the functional domains into cells cultured at 1·10^4 cells/well. The transfected cells were incubated at 37° C. for three days before assays.
Three days after transfection, medium was transferred to the new tubes and heated for 30 minutes at 65° C. to inactivate the endogenous alkaline phosphatase. 25 μl of medium was mixed with the same volume of 2×SEAP assay buffer (2 M Diethanolamine (pH 9.8) 10 ml, 1 M MgCl2 10 μl, 1 M homoarginine 200 μl, pNitro phenyl phosphate 44.52 mg). Absorbance at 405 nm was measured after the indicated incubation times at 37° C.
We tested whether library nucleic acids could alter expression of a heterologous nucleic acid. SEAP (secretory alkaline phosphatase) was used as a reporter protein to test whether a ZFP can affect amount of foreign protein produced intracellularly.
Consider B1, for which the “Absorbance (405 nm)” value turned out to be 0.15.
Take B2: the “Absorbance (405 nm)” value stood at 0.17.
Then B3, with 0.13; and B4, with 0.15.
